# Laboratory results taken from publication PMC12136788.
# The list shows a part of the results.
# T1: UNK ZnF1-3 (human, UniProt Q9C0B0 31-174)
# T1 sequence: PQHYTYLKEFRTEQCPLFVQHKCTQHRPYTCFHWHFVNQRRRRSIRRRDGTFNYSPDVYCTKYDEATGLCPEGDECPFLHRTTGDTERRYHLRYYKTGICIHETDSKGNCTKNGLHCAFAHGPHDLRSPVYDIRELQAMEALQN
# B1: chr6:91700303:91700304:+_ENSMUSG00000030096_ENSMUST00000032185|mus_mus|FALSE|FALSE (ssRNA)
# RNA: GGGAGUUCUACAGUCCGACGAUCAAGAGCUGGAGUGAUGACAGCCCAGCUGUACUUCAUCCAGGGCCCAGGCCGAUAGCCAAUCAUGUCCUCAAUACCGUCAUAUAAGUUAUCACCGCCAUAUAUCCAGGCAAUAACAAAACACAACAGAGGAUUGAGCAUCA
# B2: chr9:58049150:58049151:-_ENSMUSG00000051243_ENSMUST00000114144|mus_hu|FALSE|FALSE (ssRNA)
# RNA: GGGAGUUCUACAGUCCGACGAUCUCCUGGGGCUGAAACCCCUUCUCCAGACCCGGCGUGGCAGAGCAGGGAAGAUAGCCCAAGCAAGAUACACGCAUGUGUUGUGGCCUCACGCGCCUGUCCCGCCAGCGCCCGCGAGCUUCGCAACAGAGGAUUGAGCAUCA
# B3: chrX:71549400:71549401:+_ENSMUSG00000019087_ENSMUST00000019231|mus_hu|mus_mus_mus_hu_False|38_68 (ssRNA)
# RNA: GGGAGUUCUACAGUCCGACGAUCGCAGUAGGAAGAGGGAAGCUCUUCAGUCCAGUGCGCUGCAGGGAGAAACAUGAACAACACGGACACCGUCCCACCUCAAUUCCCCCCACUGGCACAGGGUCACACAAUCUGGGUCAAAGACAACAGAGGAUUGAGCAUCA
# B4: chr8:27591085:27591086:-_ENSG00000147419_ENST00000356537|hu_hu|motif|central (ssRNA)
# RNA: GGGAGUUCUACAGUCCGACGAUCUGGAUGUGAGCUUGCUCUGGCAGCAGCAGUGCUGUCCUUGUUUCUGAGCUGCCACCGGUUCACUGGAGUUAGGUGGGUCAAAGCUGAAAUUUAGCUUGGAAUUUAAGUUUCUAAUUUUAUCAACAGAGGAUUGAGCAUCA
# B5: chr9:88635815:88635816:+_ENSG00000135040_ENST00000361671|hu_hu|motif|central (ssRNA)
# RNA: GGGAGUUCUACAGUCCGACGAUCUCCUCCUGCCAAUAACUUCAUAACCACAAAGUUGGGUUUGGCAACCUUUAAAAUUCGGUUAACCUCAUGGUCCGGGUUAGGAAUAUUUUCCAAUAUCAUUUUUGCCUGUUGAAAGUGCUUCAACAGAGGAUUGAGCAUCA
# B6: chr7:23387248:23387249:-_ENSG00000136231_ENST00000258729|hu_hu|FALSE|FALSE (ssRNA)
# RNA: GGGAGUUCUACAGUCCGACGAUCAAUCUUCAAGGGGAUCUCUUCUGUGAAUUUUAUAUCUUGAGCUUCCUUAUGCAUAAUCUCCAGAAUAGACUUACAAGCCGCAGAGGUGCCUUCAGGAGUAGAGAGGAUAGUAAUCGACUUCAACAGAGGAUUGAGCAUCA
# B7: chr11:100581416:100581417:-_ENSMUSG00000019173_ENSMUST00000107364|mus_mus|motif|central (ssRNA)
# RNA: GGGAGUUCUACAGUCCGACGAUCCCCGCCAUGGCGCGCUGCUCUGUAGUAGUACCAGUGAGCGUGGGGGUGGGGCCGGUGCGGUGCAAAGAGGCACUUAAUGGGAAGGGAGGCCUCCAACGCGGCUCCGGGCAGCAGCGUUACCAACAGAGGAUUGAGCAUCA
# B8: chr6:142724167:142724168:+_ENSMUSG00000030282_ENSMUST00000032419|mus_hu|FALSE|FALSE (ssRNA)
# RNA: GGGAGUUCUACAGUCCGACGAUCUACACACUGUCCCCAGAUAAAUAAAAUCCCAACAUCUUUGAAAGCACACAAACACACAGUUUUACAGGGUACAAUACAAAGUGAACUUUGAUGAUGUUCUUACUUGCAUUUACUAAAAAUCAACAGAGGAUUGAGCAUCA
# B9: chr11:97022710:97022711:-_ENSMUSG00000001440_ENSMUST00000001479|mus_hu|FALSE|FALSE (ssRNA)
# RNA: GGGAGUUCUACAGUCCGACGAUCACACUUCUAAAAAAAUAUUCAAGUGUGUGACCAGGGGACGUUUGACACCAUUUUAUUAACCUUCAACUUCAGUGGAAAAAUAAAACCUUUUCCAAGUGCCAUUUUCAUCACAAGACUUCUCAACAGAGGAUUGAGCAUCA
# B10: chr19:5156467:5156468:-_ENSMUSG00000024855_ENSMUST00000025786|mus_mus|motif|central (ssRNA)
# RNA: GGGAGUUCUACAGUCCGACGAUCUUUUAUUUCUGCCACUGGCACAGAGACAUCCUUCACAUUGCUGUGCAGGCCAAGUACGGAAGCGCCCUCAUUAGGGUGUUGCAUCACCUCUGCCAUGUUGAUGAGUCCCACAGCUAAGGUCAACAGAGGAUUGAGCAUCA
# B11: 52862007_52862127_5684_CDS_ENSMUSG00000035247_ENSMUST00000042052|mouse|control|control (ssRNA)
# RNA: GGGAGUUCUACAGUCCGACGAUCAGGAAUUUCUAGGUCAGUUGUCUGCUGGACAUUGGUACGACCAGGUCUAGGAUCAAAAGCAGGGACCAGUGCAGAAAACUGGCGCUUUAGCACAUAGUCGUCAUCCCAGGCUCUGCGGCGCAACAGAGGAUUGAGCAUCA
# B12: chr1:52222005:52222006:-_ENSMUSG00000026103_ENSMUST00000114513|mus_mus|motif|central (ssRNA)
# RNA: GGGAGUUCUACAGUCCGACGAUCACCAACAGUUAGGCAGUAGAGGAAGAGAAGAUACUCAGGGCCUCCCACAAAGGGGUGCGGUCUUGAUGCAGACAUUUGACAGCAGGAUUCAAAGUAAGUGUUAUUUGUAGCUUUUCCUAACAACAGAGGAUUGAGCAUCA
# B13: chr9:7834011:7834012:-_ENSMUSG00000057367_ENSMUST00000074246|mus_hu|FALSE|FALSE (ssRNA)
# RNA: GGGAGUUCUACAGUCCGACGAUCUGCAUAACUGUAGGGGUUAGUCCUCGAUGAAGAGAUGUCUUCAACUGCUCUAGAAUUAAGAGGGUUUGGAGAAAGGCUGGAGUAAGAACCACUGAACAAGCUACUAUGUUCCAAGGUGGGCAACAGAGGAUUGAGCAUCA
# B14: chr1:27861377:27861378:-_ENSG00000126705_ENST00000374011|hu_hu|FALSE|FALSE (ssRNA)
# RNA: GGGAGUUCUACAGUCCGACGAUCGGUCUGCAGGGGGUGUAGGGGGCAGGGUGGGAGGCAGAGGGGCAGGAGCUCCUGCCAGAGGACGAUGUGGACGCUGGGAGGGAUCUUGGCGUUGGUUUUCUGAAAGCCAGGAACAAAACCCAACAGAGGAUUGAGCAUCA
# Target: T1, UNK ZnF1-3
# Test: nsRBNS (natural sequence RNA bind-n-seq); RBNS binding buffer (assumed for nsRBNS): 25 mM Tris pH 7.5, 150 mM KCl, 3 mM MgCl2, 0.01% Triton X-100, 500 ug/ml BSA, 20 U/ml SUPERase-In, 4 C; UNK is unkempt and MSI1 is Musashi-1; names of the RNAs are library labels; protein concentration not given here; high values mean tight binding
row,Binder,binding signal [enrichment R]
1,B1,0.84
2,B2,0.667
3,B3,1.17
4,B4,0.671
5,B5,0.992
6,B6,1.09
7,B7,1.28
8,B8,1.43
9,B9,1.05
10,B10,0.826
11,B11,0.911
12,B12,1.16
13,B13,1.56
14,B14,2.07
